The whole screen tested about 360,000 compounds, of which about 2,600 (0.72%) were called active. This list was built around the results that the source calls inconclusive (neither active nor inactive); the mix of calls is not that of the screen. Calls follow the shape of the dose curve; as a rule, active = well fitted inhibition curve with a large enough effect; inconclusive = small, poorly fitted or top-dose-only effect; inactive = no such curve, though single readings can be large or run the other way. Potencies of inconclusive entries are doubtful fits and often do not repeat.
Assay: Primary qHTS for Inhibitors of ATXN expression; also: nearly all actives have a fitted effect of over 55% in size
Conditions: HEK-293 ATXN2-luciferase reporter, luminescence, 24 h; activity change, negative = inhibition: at 57 µM (top of the series)
Outline: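 qHTS (up to 57 uM final) was run with 24 h compound exposure of reporter cells at 37 °C. Each well was multiplexed: SteadyGlo luminescence measured ATXN2-luciferase expression after a fluorogenic Gly-Phe-AFC viability readout (25 uM final).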
% is scaled to controls: 0 for no effect and ±100 for the full control effect; potency is read from the fitted curve at half-maximal effect; tags tell the direction and shape of the fitted curve.

| Structure (SMILES) | activity change, negative = inhibition | Potency |
| --- | --- | --- |
| CN(C)S(=O)(=O)c1ccc2c(c1)C(=Cc1cc3c([nH]1)CCCC3)C(=O)N2 | inactive: 26.6% | – |
| COc1ccc(CNC(=O)CN(C2CCCCC2)S(C)(=O)=O)cc1 | – | inconclusive: 8.91 µM [inhibitor, single point] |
| COc1cc(OC)cc(-c2sc3ccc(OC)cc3c2-c2ccc(O)cc2)c1 | – | inconclusive: 39.8 µM [inhibitor, single point] |
| CN(C(=O)CN(CCO)CC(=O)N(C)C(C)(C)Cc1ccccc1)C(C)(C)Cc1ccccc1 | – | inconclusive: 25.1 µM [inhibitor, partial curve, poor fit] |
| CCOC(=O)N1CCC(NC(=O)c2cc(S(=O)(=O)N3CCOCC3)ccc2F)CC1 | inactive: 2.66% | – |
| CCCCN1C(C)=CC(=C2C(=O)c3ccccc3C2=O)C=C1C | inactive: -0.243% | – |
| O=C(NNC(=O)c1cccc2ccccc12)c1ccccc1O | – | inconclusive: 15.8 µM [inhibitor, partial curve] |
| CC(=O)Nc1ccc(NC(=O)CSc2nnc(-c3cccs3)n2N)cc1 | inactive: -1.51% | – |
| O=C(c1cc2ccccc2o1)N1CCCCCC1 | inactive: 21.1% | – |
| Cc1cc(OCC(=O)NC(C)c2ccccc2)ccc1[N+](=O)[O-] (stereo not given) | – | inconclusive: 12.6 µM [inhibitor, partial curve, poor fit] |
| COc1cc(CNCCc2ccc(F)cc2)ccc1OCc1ccc(Cl)nc1 | – | inconclusive: 31.6 µM [inhibitor, partial curve, poor fit] |
| CC(=O)N1c2ccc(Cl)cc2C2C=CCC2C1c1cccc2ccccc12 (stereo not given) | – | inconclusive: 28.2 µM [inhibitor, partial curve, poor fit] |
| c1ccc(Nc2nc(Nc3ccccc3)nc(N3CCNCC3)n2)cc1 | – | inconclusive: 22.4 µM [inhibitor, partial curve, poor fit] |
| CCC(C)c1ccc(C(C)NC(=S)NCc2ccc(F)cc2)cc1 (stereo not given) | – | inconclusive: 22.4 µM [inhibitor, partial curve] |
| CCOC(=O)c1cccc(NC(=O)C(Cc2ccccc2)NS(=O)(=O)c2cccc3nsnc23)c1 (stereo not given) | – | inconclusive: 39.8 µM [inhibitor, single point] |
| C=CCC[C@@H](Cc1ccc(F)cc1)C(=O)O[C@H](CNC(=O)[C@H](CC=C)CC(=O)N(CCO)Cc1ccccc1)c1ccccc1 | – | inconclusive: 39.8 µM [inhibitor, single point] |
| Cc1ccc(C)c(Nc2nc3nonc3nc2Nc2cccc(C)c2C)c1 | – | inconclusive: 3.55 µM [inhibitor, single point] |
| COc1ccc(-c2csc(N(CCCN(C)C)C(=O)c3ccccc3C)n2)cc1 | – | inconclusive: 31.6 µM [inhibitor, partial curve] |
| CCN(CC)c1cc(C)c2cc(NC(=O)c3ccc(Br)o3)ccc2n1 | – | inconclusive: 28.2 µM [inhibitor, single point] |
| O=C1[C@H]2CCC=C[C@H]2[C@H](c2ccccc2Br)N1Cc1ccccc1 | – | inconclusive: 25.1 µM [inhibitor, partial curve, poor fit] |
| O=C(C=Cc1cccc(O)c1)c1ccccc1O | – | inconclusive: 39.8 µM [inhibitor, single point] |
| O=S(=O)(NCCN1CCOCC1)c1ccc(Oc2ccccc2Cl)cc1 | – | inconclusive: 10 µM [inhibitor, partial curve, poor fit] |

| Structure (SMILES) | activity change, negative = inhibition | Potency |
| --- | --- | --- |
| CCCN1CCc2c(sc(NC(=O)c3ccc(S(=O)(=O)N4CCN(C(=O)OCC)CC4)cc3)c2C(N)=O)C1 | – | inconclusive: 39.8 µM [inhibitor, single point] |
| COc1ccc(-c2cc(C(F)(F)F)nc(SCCC(=O)Nc3cccc(O)c3)n2)cc1 | – | inconclusive: 39.8 µM [inhibitor, single point] |
| Cc1ccc(C)c(NC(=O)COc2coc(CN3CCc4ccccc4C3)cc2=O)c1 | – | inconclusive: 11.2 µM [inhibitor, partial curve, poor fit] |
| Cc1oc(-c2cccc(C(F)(F)F)c2)nc1CN1CCOCC1 | inactive: 4.45% | – |
| CCOc1ccc2[nH]c(=O)c(CN(Cc3ccco3)C(=O)c3cccc(F)c3)cc2c1 | inactive: 2.58% | – |
| CCN=c1scc(-c2ccccc2)n1/N=C/c1ccccn1 | – | inconclusive: 11.2 µM [inhibitor, single point] |
| CC12CCC(C(=O)Nc3cc(Cl)ccc3Cl)(C(Br)C1=O)C2(C)C (stereo not given) | – | inconclusive: 1.41 µM [inhibitor, partial curve] |
| COc1ccc(Cn2ccc3nc(C)c(C(=O)N4CCN(c5cc(C)ccc5C)CC4)cc3c2=O)cc1 | – | inconclusive: 39.8 µM [inhibitor, single point] |
| COc1cc(CNc2ccc3[nH]c(=O)[nH]c3c2)cc(Br)c1OCc1ccc(F)cc1 | – | inconclusive: 14.1 µM [inhibitor, partial curve, poor fit] |
| Clc1ccc(-c2cnnc(-c3ccccn3)n2)cc1 | – | inconclusive: 39.8 µM [inhibitor, single point] |
| O=S(=O)(CCNCCc1ccccc1)NC1CCCCC1 | inactive: 13.4% | – |
| CN(C)c1ccc(/C=C(\C#N)c2ccccn2)cc1 | – | active: 11.2 µM |
| O=C(CCN1CCCC1Cc1ccccc1)c1ccc2c(c1)OCCO2 (stereo not given) | – | inconclusive: 39.8 µM [inhibitor, single point] |
| O=C(NCCc1ccccc1)c1ccc2c(c1)OCCO2 | – | active: 2.51 µM |
| Cc1ccc(-c2cn(-c3ccc(OC(F)F)cc3)c3[n+]2CCCCC3)cc1 | – | inconclusive: 23.8 µM [inhibitor, partial curve, poor fit] |
| CC(C)(C)OC(=O)NCCCCCNC(=O)c1[nH]cnc1C(=O)Nc1ccccc1 | – | inconclusive: 25.1 µM [inhibitor, single point] |
| O=S(=O)(Nc1cc(C(F)(F)F)ccc1N1CCOCC1)c1ccc2ccccc2c1 | – | inconclusive: 8.44 µM [inhibitor, partial curve] |
| COc1ccc(/C=C/C(=O)c2ccc(NS(=O)(=O)c3ccc(C)cc3)cc2)cc1O | – | inconclusive: 25.1 µM [inhibitor, single point] |
| O=C(c1ccc2ccccc2c1)N1CCN(c2ccc(O)cc2)CC1 | inactive: -28.7% | – |
| CCC(C)Sc1ccc(-c2nc3ccccn3c2NCc2ccccc2)cc1OC (stereo not given) | – | inconclusive: 39.8 µM [inhibitor, single point] |
| COc1ccc(F)cc1-c1cc(C(=O)Nc2ccc(C)c(NS(C)(=O)=O)c2)[nH]n1 | – | active: 25.1 µM |
| CCCCC(=O)NC(c1ccccc1Cl)c1ccc2cccnc2c1O (stereo not given) | – | active: 2.82 µM |

| Structure (SMILES) | activity change, negative = inhibition | Potency |
| --- | --- | --- |
| CCOC(=O)c1c(C)[nH]c(C)c1S(=O)(=O)NCC(=O)N1CCN(c2cc(Cl)ccc2C)CC1 | – | inconclusive: 39.8 µM [inhibitor, single point] |
| Cc1cccc(N(C)S(=O)(=O)c2c[nH]c3ccc([N+](=O)[O-])cc23)c1 | – | inconclusive: 39.8 µM [inhibitor, single point] |
| Cc1c(CN(C)C)c2c(n1C)C(=O)c1ccc(Br)cc1-2 | – | inconclusive: 17.8 µM [inhibitor, partial curve] |
| O=[N+]([O-])c1ccc(NN=Cc2cccc([N+](=O)[O-])c2)cc1 | – | inconclusive: 39.8 µM [inhibitor, single point] |
| COc1ccc(-n2c3c(cc(C(=O)NNc4ccccc4)c2=O)C(=O)CC(C)(C)C3)cc1 | – | inconclusive: 25.1 µM [inhibitor, single point] |
| COC(=O)Cc1[nH]n(-c2nc3ccccc3s2)c(=O)c1C(C)=Nc1ccc(C)cc1 | – | inconclusive: 0.631 µM [inhibitor, full curve, poor fit] |
| Cc1[nH]n(-c2ccccc2)c(=S)c1C=NCCCN=Cc1c(C)[nH]n(-c2ccccc2)c1=S | – | inconclusive: 22.4 µM [inhibitor, single point] |
| Cc1cccc(N2CCN(C(=O)Cn3c(C)c4cnn(-c5ccccc5)c(=O)c4c3C)CC2)c1C | – | inconclusive: 28.2 µM [inhibitor, partial curve, poor fit] |
| CCOc1cc(/C=N\NC(=O)c2ccc(NC(=O)CC)cc2)ccc1OC(=O)c1ccccc1 | – | active: 20 µM |
| COc1ccc(CN2CCNC(=O)C2CC(=O)N(C)C2CCOCC2)c(F)c1 (stereo not given) | inactive: 2.87% | – |
| Cc1cc(C)n2c(Nc3c(C)cccc3C)c(CCc3ccccc3)nc2n1 | – | inconclusive: 35.5 µM [inhibitor, single point] |
| Cn1c(CCCNC(=O)c2ccco2)nc2ccccc21 | inactive: 22% | – |
| CCOc1ccc(CCNC(=O)C2Cc3ccccc3N2C(=O)CC)cc1 (stereo not given) | inactive: -5.96% | – |
| CCOc1ccc(C(=O)Nc2nnc(SCC(=O)NCC3CCCO3)s2)cc1 (stereo not given) | – | inconclusive: 5.01 µM [inhibitor, single point] |
| CCCn1ccc2c(OCC(=O)Nc3ccccc3C(=O)OCC)cccc2c1=O | inactive: 5.3% | – |
| Cc1nnc(SC(=O)N2c3ccccc3Sc3ccccc32)s1 | – | active: 25.1 µM |
| CC1CCc2nc(NC(=O)C3COc4ccccc4O3)sc2C1 (stereo not given) | – | inconclusive: 37.7 µM [inhibitor, single point] |
| O=C(Nc1ccc(Oc2cccc3ccccc23)cc1)c1ccco1 | – | inconclusive: 31.6 µM [inhibitor, partial curve, poor fit] |
| CCc1ccc(-c2n[nH]nc2C2=CC(=O)C[C@H](c3ccc(F)cc3)C2)cc1 | – | inconclusive: 39.8 µM [inhibitor, single point] |
| CNC(=O)NC(=O)COC(=O)CCCSc1nc2ccccc2s1 | – | inconclusive: 31.6 µM [inhibitor, single point] |
| O=C(N/N=C/c1cc([N+](=O)[O-])ccc1O)c1ccc2c(c1)OCCO2 | – | inconclusive: 35.5 µM [inhibitor, partial curve, poor fit] |
